Reference: article PMC9014410, “Discovery of V-0219: A Small-Molecule Positive Allosteric Modulator of the Glucagon-Like Peptide-1 Receptor toward Oral Treatment for “Diabesity”” (Journal of Medicinal Chemistry, 2022)

Experiments:
[1] = system: INS-1 β-cells; assay: Insulin secretion by rat INS-1 / INS-1E insulinoma cells; assay type: cell-based
Protocol: The incubation was done using two types of culture media, defined as low glucose (0.5–3 mM) and high glucose (15 mM). […] Incubation with compounds lasted 30 min, and then the media was collected, centrifuged at 4 °C for 2 min until assayed for insulin using commercial ELISA kit.

[2] = system: Zucker (fa/fa) obese male rats; assay: Glucose tolerance test in diabetic fatty Zucker rats; assay type: in vivo, rat; conditions: 9, 2 but not 0.1 mg/kg, ip; glucose load 2 g/kg
[3] = PAMPA-BBB membrane permeability; assay type: in vitro ADME, porcine
[4] = Stability in human liver microsomes; assay type: in vitro ADME
[5] = Stability in dog liver microsomes; assay type: in vitro ADME
[6] = Stability in rat liver microsomes; assay type: in vitro ADME
[7] = molecular target: T1, CYP1A2 (Homo sapiens, UniProt P05177); assay: P450 cytochrome inhibition, CYP1A2; assay type: in vitro ADME
T1 sequence (P05177 1-516): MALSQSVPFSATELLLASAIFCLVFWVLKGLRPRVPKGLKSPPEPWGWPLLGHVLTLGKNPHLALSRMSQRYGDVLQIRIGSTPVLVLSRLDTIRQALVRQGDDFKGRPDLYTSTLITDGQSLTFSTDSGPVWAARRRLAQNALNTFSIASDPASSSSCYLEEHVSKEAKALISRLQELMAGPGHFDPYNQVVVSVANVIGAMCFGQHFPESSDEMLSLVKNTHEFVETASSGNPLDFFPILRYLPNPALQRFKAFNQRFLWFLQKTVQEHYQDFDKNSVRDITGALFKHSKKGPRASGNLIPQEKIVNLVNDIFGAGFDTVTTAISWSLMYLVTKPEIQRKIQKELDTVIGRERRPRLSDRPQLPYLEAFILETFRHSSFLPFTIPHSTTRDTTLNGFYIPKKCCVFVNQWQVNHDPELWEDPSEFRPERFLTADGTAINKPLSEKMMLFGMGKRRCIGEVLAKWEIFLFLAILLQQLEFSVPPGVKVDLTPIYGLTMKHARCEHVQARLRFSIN
Protocol: (§1) Inhibition of P450 cytochrome isoforms. […] Effect on hERG channel. […] Patch clamp experiments were carried out using […]® robot. […] After S27

[8] = molecular target: CYP2C19 (Homo sapiens, UniProt P33261); assay: P450 cytochrome inhibition, CYP2C19; assay type: in vitro ADME
Protocol: as §1

[9] = molecular target: CYP2D6 (Homo sapiens, UniProt P10635); assay: P450 cytochrome inhibition, CYP2D6; assay type: in vitro ADME
Protocol: as §1

[10] = molecular target: CYP3A (Homo sapiens, UniProt P08684); assay: P450 cytochrome inhibition, CYP3A; assay type: in vitro ADME
Protocol: as §1

[11] = molecular target: T2, AT1 (h) (Homo sapiens, UniProt P30556); assay: biochemical; design: radioligand displacement binding panel (Eurofins Cerep), % inhibition of control specific binding; conditions: antagonist radioligand; read-out: % Inhibition of Control Specific Binding
T2 construct: gene AGTR1
T2 sequence (P30556 1-359): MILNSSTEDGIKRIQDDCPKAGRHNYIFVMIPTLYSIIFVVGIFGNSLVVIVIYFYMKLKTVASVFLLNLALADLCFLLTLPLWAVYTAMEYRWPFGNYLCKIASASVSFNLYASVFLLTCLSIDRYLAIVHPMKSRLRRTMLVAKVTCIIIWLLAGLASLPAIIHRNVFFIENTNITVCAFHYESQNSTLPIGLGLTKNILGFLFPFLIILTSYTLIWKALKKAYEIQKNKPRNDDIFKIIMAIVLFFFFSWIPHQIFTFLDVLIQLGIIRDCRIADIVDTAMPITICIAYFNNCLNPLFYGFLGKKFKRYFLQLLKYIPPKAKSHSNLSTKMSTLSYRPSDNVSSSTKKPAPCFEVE
Description: (§2) 3. Binding to off-target receptors
(§3) Eurofins Cerep (France). Significant binding affinity was defined as a displacement of target
(§4) selective radioligand greater than 50% using a concentration of 10 µM of 9.

[12] = molecular target: T3, CB1 (h) (Homo sapiens, UniProt P21554); assay: biochemical; design: radioligand displacement binding panel (Eurofins Cerep), % inhibition of control specific binding; conditions: agonist radioligand; read-out: % Inhibition of Control Specific Binding
T3 construct: gene CNR1
Description: as §2, §3, §4

[13] = molecular target: T4, CCK1 (CCKA) (h) (Homo sapiens, UniProt P32238); assay: biochemical; design: radioligand displacement binding panel (Eurofins Cerep), % inhibition of control specific binding; conditions: agonist radioligand; read-out: % Inhibition of Control Specific Binding
T4 construct: gene CCKAR
T4 sequence (P32238 1-428): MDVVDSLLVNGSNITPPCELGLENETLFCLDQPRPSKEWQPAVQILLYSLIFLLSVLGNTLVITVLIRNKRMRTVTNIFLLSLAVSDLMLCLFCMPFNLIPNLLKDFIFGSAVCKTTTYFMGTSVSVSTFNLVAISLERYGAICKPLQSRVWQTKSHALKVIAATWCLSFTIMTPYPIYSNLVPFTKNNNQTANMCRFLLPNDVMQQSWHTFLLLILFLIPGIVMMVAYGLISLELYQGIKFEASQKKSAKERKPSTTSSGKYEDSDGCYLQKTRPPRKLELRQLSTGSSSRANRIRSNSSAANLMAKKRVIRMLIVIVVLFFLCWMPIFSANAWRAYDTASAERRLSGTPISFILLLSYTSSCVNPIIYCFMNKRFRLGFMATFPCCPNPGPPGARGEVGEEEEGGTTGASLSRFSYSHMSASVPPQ
Description: as §2, §3, §4

[14] = molecular target: T5, CXCR2 (IL-8B) (h) (Homo sapiens, UniProt P25025); assay: biochemical; design: radioligand displacement binding panel (Eurofins Cerep), % inhibition of control specific binding; conditions: agonist radioligand; read-out: % Inhibition of Control Specific Binding
T5 sequence (P25025 1-360): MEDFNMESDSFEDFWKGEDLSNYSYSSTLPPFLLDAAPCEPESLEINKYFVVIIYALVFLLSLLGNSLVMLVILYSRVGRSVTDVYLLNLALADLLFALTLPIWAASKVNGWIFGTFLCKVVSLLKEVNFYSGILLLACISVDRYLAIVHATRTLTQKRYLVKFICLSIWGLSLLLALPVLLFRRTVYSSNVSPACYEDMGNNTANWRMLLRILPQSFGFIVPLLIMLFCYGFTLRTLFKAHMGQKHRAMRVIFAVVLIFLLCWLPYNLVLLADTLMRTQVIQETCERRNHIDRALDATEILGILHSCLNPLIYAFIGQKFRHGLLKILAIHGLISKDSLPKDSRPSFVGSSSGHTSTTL
Description: as §2, §3, §4

[15] = molecular target: T6, D1 (h) (Homo sapiens, UniProt P21728); assay: biochemical; design: radioligand displacement binding panel (Eurofins Cerep), % inhibition of control specific binding; conditions: antagonist radioligand; read-out: % Inhibition of Control Specific Binding
T6 construct: gene DRD1
Description: as §2, §3, §4

[16] = molecular target: T7, D2S (h) (Homo sapiens, UniProt P14416); assay: biochemical; design: radioligand displacement binding panel (Eurofins Cerep), % inhibition of control specific binding; conditions: antagonist radioligand; read-out: % Inhibition of Control Specific Binding
T7 construct: gene DRD2; short isoform D2S
Description: as §2, §3, §4

[17] = molecular target: T8, ETA (h) (Homo sapiens, UniProt P25101); assay: biochemical; design: radioligand displacement binding panel (Eurofins Cerep), % inhibition of control specific binding; conditions: agonist radioligand; read-out: % Inhibition of Control Specific Binding
T8 construct: gene EDNRA
T8 sequence (P25101 1-427): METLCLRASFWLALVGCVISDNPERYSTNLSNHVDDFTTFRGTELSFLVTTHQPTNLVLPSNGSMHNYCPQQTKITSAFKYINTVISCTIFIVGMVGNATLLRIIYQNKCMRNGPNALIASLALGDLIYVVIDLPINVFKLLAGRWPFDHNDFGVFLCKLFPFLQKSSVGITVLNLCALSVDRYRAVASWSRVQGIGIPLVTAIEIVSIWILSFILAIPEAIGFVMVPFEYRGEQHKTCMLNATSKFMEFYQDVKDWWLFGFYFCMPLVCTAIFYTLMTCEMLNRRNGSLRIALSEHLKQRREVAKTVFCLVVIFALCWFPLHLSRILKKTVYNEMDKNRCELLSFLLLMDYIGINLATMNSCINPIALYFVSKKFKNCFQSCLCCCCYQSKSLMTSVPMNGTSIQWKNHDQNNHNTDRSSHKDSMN
Description: as §2, §3, §4

[18] = molecular target: T9, M1 (h) (Homo sapiens, UniProt P11229); assay: biochemical; design: radioligand displacement binding panel (Eurofins Cerep), % inhibition of control specific binding; conditions: antagonist radioligand; read-out: % Inhibition of Control Specific Binding
T9 construct: gene CHRM1
Description: as §2, §3, §4

[19] = molecular target: T10, M2 (h) (Homo sapiens, UniProt P08172); assay: biochemical; design: radioligand displacement binding panel (Eurofins Cerep), % inhibition of control specific binding; conditions: antagonist radioligand; read-out: % Inhibition of Control Specific Binding
T10 construct: gene CHRM2
T10 sequence (P08172 1-466): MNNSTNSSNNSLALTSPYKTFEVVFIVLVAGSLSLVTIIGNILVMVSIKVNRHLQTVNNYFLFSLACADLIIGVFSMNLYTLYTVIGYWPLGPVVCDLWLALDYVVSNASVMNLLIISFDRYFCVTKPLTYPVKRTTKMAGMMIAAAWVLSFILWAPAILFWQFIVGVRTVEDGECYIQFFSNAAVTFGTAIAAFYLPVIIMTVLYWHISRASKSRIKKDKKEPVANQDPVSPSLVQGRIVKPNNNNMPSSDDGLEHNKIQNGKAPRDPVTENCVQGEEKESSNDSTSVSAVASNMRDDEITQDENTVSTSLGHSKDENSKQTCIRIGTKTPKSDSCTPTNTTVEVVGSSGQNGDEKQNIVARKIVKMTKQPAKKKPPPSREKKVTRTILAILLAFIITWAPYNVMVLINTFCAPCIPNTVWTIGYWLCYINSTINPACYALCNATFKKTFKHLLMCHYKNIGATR
Description: as §2, §3, §4

[20] = molecular target: T11, M3 (h) (Homo sapiens, UniProt P20309); assay: biochemical; design: radioligand displacement binding panel (Eurofins Cerep), % inhibition of control specific binding; conditions: antagonist radioligand; read-out: % Inhibition of Control Specific Binding
T11 construct: gene CHRM3
Description: as §2, §3, §4

[21] = molecular target: T12, MC4 (h) (Homo sapiens, UniProt P32245); assay: biochemical; design: radioligand displacement binding panel (Eurofins Cerep), % inhibition of control specific binding; conditions: agonist radioligand; read-out: % Inhibition of Control Specific Binding
T12 construct: gene MC4R
Description: as §2, §3, §4

[22] = molecular target: T13, β2 (h) (Homo sapiens, UniProt P07550); assay: biochemical; design: radioligand displacement binding panel (Eurofins Cerep), % inhibition of control specific binding; conditions: agonist radioligand; read-out: % Inhibition of Control Specific Binding
T13 construct: gene ADRB2
Description: as §2, §3, §4

T6 sequence (P21728 whole entry): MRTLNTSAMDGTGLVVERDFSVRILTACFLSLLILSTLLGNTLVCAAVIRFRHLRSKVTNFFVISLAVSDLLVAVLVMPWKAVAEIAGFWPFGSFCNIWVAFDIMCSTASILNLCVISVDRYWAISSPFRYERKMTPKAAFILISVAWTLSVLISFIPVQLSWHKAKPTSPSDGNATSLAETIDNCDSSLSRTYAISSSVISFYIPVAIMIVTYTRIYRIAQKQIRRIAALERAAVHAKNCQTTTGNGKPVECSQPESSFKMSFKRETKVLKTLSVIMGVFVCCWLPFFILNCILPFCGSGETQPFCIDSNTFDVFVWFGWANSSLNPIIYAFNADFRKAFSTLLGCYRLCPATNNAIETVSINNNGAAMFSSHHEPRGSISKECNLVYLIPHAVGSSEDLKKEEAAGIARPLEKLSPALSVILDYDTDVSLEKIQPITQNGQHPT
T7 sequence (P14416 whole entry, canonical isoform): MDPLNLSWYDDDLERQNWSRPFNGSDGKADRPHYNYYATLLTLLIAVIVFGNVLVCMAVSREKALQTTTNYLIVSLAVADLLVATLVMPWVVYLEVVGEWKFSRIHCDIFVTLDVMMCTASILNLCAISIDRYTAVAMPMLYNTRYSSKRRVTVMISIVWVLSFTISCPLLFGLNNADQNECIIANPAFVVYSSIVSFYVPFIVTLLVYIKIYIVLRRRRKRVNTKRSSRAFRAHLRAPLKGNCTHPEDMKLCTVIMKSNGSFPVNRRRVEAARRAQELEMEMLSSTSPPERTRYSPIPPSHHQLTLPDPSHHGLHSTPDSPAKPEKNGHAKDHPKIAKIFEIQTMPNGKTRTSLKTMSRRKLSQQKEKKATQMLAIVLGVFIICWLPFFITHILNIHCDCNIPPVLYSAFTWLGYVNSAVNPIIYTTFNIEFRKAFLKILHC
Chain of UniProt P10635 (P10635 whole entry): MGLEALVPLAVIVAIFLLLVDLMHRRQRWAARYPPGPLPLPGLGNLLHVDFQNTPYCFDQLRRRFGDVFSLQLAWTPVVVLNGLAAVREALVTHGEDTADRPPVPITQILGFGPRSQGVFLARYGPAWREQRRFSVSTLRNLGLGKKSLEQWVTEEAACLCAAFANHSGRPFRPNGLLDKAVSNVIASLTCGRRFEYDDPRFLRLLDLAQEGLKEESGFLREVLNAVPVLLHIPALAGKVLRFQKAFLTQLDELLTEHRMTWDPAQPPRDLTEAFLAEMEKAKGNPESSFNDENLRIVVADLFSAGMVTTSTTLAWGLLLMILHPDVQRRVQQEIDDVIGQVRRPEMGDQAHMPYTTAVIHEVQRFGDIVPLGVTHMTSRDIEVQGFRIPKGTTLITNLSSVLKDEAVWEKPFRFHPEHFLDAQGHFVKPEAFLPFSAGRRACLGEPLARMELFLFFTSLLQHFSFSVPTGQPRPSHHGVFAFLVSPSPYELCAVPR
T3 sequence (P21554 whole entry): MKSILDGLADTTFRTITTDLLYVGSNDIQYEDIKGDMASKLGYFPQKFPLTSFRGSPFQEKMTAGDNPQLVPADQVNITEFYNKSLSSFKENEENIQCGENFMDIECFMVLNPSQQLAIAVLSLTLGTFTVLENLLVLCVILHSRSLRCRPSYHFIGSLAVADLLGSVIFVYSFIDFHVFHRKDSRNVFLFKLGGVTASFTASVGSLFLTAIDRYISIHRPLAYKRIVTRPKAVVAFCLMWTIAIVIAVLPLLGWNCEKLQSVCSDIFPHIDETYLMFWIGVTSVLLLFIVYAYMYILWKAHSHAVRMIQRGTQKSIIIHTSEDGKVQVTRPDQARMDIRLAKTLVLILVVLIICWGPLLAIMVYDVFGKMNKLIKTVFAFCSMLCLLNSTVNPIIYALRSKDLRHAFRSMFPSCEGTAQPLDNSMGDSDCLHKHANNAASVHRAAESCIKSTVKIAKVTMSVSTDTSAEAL
Chain of UniProt P33261 (P33261 whole entry): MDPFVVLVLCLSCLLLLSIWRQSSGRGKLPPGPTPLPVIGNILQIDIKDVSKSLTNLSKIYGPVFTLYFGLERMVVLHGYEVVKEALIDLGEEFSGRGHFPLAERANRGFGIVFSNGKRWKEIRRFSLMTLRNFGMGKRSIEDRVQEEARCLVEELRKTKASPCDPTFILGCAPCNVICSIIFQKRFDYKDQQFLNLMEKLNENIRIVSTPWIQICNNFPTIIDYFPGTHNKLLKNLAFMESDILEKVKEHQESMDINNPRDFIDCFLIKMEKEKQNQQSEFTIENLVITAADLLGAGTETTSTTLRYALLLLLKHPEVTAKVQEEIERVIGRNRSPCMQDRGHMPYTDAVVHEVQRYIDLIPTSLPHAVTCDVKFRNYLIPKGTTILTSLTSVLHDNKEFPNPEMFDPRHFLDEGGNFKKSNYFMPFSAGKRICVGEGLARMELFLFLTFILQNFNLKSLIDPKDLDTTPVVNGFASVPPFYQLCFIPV
T12 sequence (P32245 whole entry): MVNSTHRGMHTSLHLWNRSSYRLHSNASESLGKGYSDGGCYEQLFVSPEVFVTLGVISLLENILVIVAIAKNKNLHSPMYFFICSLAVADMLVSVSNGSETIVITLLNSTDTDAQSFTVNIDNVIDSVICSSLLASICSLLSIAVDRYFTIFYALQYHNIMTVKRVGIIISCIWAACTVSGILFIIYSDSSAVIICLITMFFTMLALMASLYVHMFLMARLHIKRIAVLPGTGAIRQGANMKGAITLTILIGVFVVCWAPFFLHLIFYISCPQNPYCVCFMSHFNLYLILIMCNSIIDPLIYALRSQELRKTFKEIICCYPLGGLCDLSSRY
T9 sequence (P11229 whole entry): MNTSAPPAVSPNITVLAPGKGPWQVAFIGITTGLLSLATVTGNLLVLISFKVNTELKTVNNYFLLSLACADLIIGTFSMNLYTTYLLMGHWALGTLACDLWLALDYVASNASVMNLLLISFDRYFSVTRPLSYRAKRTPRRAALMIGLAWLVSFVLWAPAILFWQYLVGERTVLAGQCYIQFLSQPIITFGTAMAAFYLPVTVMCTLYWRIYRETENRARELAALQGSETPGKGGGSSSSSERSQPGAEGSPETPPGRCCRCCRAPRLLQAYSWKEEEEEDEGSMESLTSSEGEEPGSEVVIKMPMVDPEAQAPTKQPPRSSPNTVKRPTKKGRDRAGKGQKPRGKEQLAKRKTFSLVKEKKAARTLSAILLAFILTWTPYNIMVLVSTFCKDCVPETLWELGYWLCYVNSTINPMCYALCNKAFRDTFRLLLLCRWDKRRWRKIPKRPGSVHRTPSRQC
T11 sequence (P20309 whole entry): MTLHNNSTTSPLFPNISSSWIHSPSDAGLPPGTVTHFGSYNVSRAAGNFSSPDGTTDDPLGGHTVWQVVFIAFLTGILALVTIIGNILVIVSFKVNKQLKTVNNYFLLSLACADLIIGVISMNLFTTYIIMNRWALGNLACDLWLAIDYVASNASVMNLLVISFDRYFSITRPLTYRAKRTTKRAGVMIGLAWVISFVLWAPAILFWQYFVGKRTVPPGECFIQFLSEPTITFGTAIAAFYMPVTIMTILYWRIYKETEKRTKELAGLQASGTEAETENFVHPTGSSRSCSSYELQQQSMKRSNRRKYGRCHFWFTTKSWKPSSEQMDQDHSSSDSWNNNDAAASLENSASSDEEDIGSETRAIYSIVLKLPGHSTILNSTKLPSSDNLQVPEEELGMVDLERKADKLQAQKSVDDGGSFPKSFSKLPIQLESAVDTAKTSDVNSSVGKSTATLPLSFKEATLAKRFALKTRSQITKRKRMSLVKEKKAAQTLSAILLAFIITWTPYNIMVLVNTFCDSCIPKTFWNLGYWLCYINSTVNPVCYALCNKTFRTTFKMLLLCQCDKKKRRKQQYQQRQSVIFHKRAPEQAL
T13 sequence (P07550 whole entry): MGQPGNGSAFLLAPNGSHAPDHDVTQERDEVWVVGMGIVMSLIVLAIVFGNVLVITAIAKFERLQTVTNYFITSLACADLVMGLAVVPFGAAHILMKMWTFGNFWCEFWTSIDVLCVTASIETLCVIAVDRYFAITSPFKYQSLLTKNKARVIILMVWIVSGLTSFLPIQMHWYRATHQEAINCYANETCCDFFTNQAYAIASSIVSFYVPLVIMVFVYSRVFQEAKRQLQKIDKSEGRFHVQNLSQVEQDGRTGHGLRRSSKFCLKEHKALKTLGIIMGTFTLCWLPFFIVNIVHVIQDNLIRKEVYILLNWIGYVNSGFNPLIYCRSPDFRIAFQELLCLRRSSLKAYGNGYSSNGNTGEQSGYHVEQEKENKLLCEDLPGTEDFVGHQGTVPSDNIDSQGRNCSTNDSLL

FC(F)(F)c1ccc(-c2noc(CN3CCCC(CN4CCOCC4)C3)n2)cc1 (centres unmarked) [compound 9, 4-{[1-({3-[4-(Trifluoromethyl)phenyl]-1,2,4-oxadiazol-5-yl}methyl)piperidin-3-yl]methyl}morpholine]
potentiation of insulin secretion ([1]; 0.1 nM 9, GLP-1, high glucose): 1.8 fold | EC50 ([1]; Rattus norvegicus, INS1, read-out: EC50 value of 9, potentiation of the incretin effect of GLP-1): 8 pM | potentiation of GLP-1-induced insulin secretion (in words) ([1]; compound 1 μM, GLP-1 10 nM, high glucose 15 mM): boosting glucose-dependent GLP-1-induced secretion of insulin from β-cells | glucose handling after glucose load [2]: improvement of glucose release was also observed | brain penetration (in words) [3]: moderate brain penetration | Papp at 5 h, 50 µM ([3]; pig, PAMPA, 50 µM, PBS pH 7.4, read-out: Pe): 2 ×10⁻⁶ cm/s | Papp at 5 h, 100 µM ([3]; pig, PAMPA, 100 µM, PBS pH 7.4, read-out: Pe): 1.8 ×10⁻⁶ cm/s | Clint (mL/min/g liver) ([4]; Human): 1.8 mL/min/g liver | % Metabolism after 30 min ([4]; Human, 1 μM): 39% | half-life at 1 µM ([4]; human, human liver microsomes, read-out: Half-life time): > 30 min | Clint (mL/min/g liver) ([5]; Dog): 2.3 mL/min/g liver | % Metabolism after 30 min ([5]; Dog, 1 μM): 46% | half-life at 1 µM ([5]; dog, dog liver microsomes, read-out: Half-life time): > 30 min | Clint (mL/min/g liver) ([6]; Rat): 2.1 mL/min/g liver | % Metabolism after 30 min ([6]; Rat, 1 μM): 42% | half-life at 1 µM ([6]; rat, rat liver microsomes, read-out: Half-life time): > 30 min | IC50 [7]: 26 µM | IC50 [8]: 48 µM | IC50 [9]: 19 µM | IC50 [10]: > 100 µM | inhibition at 10 µM [11]: -6% | inhibition at 10 µM [12]: 15% | inhibition at 10 µM [13]: 2% | inhibition at 10 µM [14]: -6% | inhibition at 10 µM [15]: 4% | inhibition at 10 µM [16]: 8% | inhibition at 10 µM [17]: -13% | inhibition at 10 µM [18]: 30% | inhibition at 10 µM [19]: -7% | inhibition at 10 µM [20]: 45% | inhibition at 10 µM [21]: -8% | inhibition at 10 µM [22]: -11%
